Assay results reported in PMC4336329 (PLoS ONE, 2015).
The whole screen tested about 310,000 compounds, of which about 2,200 (0.71%) showed an effect of 50% or more. The effect is printed as a negative number. The list shows a part of the results.

target: human ether-à-go-go-related gene (hERG) potassium channel (human, UniProt Q12809); assay: primary screen, population patch clamp on CHO cells stably expressing hERG
Sequence (Q12809 whole entry, looked up): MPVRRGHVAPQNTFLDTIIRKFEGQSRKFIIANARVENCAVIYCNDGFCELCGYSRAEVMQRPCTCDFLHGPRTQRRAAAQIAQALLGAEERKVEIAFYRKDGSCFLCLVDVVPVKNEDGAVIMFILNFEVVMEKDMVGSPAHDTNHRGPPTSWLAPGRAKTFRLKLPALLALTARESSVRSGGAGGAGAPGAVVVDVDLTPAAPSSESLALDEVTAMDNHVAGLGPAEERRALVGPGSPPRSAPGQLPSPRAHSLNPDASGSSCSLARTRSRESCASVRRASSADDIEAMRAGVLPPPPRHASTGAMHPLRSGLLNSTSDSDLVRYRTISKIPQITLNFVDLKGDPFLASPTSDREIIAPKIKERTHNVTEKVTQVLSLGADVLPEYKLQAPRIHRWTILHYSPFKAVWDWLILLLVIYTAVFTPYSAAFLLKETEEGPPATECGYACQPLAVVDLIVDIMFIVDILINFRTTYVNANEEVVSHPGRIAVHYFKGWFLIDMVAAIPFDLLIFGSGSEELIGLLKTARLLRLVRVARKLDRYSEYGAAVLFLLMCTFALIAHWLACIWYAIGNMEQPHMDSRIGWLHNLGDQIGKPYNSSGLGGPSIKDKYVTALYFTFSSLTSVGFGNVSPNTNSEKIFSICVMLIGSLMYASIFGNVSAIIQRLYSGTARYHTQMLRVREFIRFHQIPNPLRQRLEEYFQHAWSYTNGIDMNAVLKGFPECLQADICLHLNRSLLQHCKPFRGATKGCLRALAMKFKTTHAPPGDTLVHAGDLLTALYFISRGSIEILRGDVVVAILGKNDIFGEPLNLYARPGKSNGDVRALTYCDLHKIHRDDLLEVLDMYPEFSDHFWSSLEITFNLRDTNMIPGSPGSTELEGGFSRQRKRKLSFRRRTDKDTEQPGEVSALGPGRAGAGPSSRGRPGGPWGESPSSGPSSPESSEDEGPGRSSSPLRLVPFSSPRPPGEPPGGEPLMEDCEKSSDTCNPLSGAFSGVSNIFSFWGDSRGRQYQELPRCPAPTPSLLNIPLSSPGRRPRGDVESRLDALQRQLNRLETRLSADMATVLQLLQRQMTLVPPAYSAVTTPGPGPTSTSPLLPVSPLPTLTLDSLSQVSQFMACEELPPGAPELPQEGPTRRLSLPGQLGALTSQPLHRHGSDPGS

Compound	hERG current change (%, negative = inhibition) at 1uM [%]
Cc1ccc(S(=O)(=O)N(C)c2c(C)ccc(S(N)(=O)=O)c2C)cc1	5.56
COc1cc(/C=N/n2c(-c3ccccc3)n[nH]c2=S)cc(OC)c1OC	7.92
CC1CC1C(=O)OCC(=O)N(C)c1c(N)n(Cc2ccccc2)c(=O)[nH]c1=O (stereo not drawn)	-1.73
CCOC(=O)CS(=O)(=O)c1ccc2ccccc2c1	1.69
NC(=O)c1ccsc1NC(=O)COC(=O)Cc1cccc2ccccc12	16.2
COc1ccccc1CC(NC(C)=O)C(=O)N1CCN(C(=O)c2cccs2)CC1 (stereo not drawn)	9.62
Cc1cc(C(C)(C)C)cc(C)c1C[n+]1ccc2ccccc2c1.[Cl-]	5.31
Cc1nc2sc(C(=O)OC(C)C)c(N)c2c(C)c1C	9.47
CCc1nnc(NS(=O)(=O)c2ccc(NC(=O)c3cccc(OC)c3)cc2)s1	13.2
O=C1CC(NCC2CCCO2)C(=O)N1c1ccc(Cl)cc1 (stereo not drawn)	13.6
CC1Cn2c(nnc2-c2cc3ccccc3cc2O)S1 (stereo not drawn)	18.7
CCOC(=O)N1CCN(C(=O)CN2C(=O)c3ccccc3S2(=O)=O)CC1	9.15
COC(CNC(=O)CN1C(=O)COc2ccc(S(=O)(=O)N3CCOCC3)cc21)OC	19
CC12CCC(=O)N1C(C(=O)NCCN1C(=O)S/C(=C\c3ccccc3F)C1=O)CS2 (stereo not drawn)	-4.15
Clc1cccc(N/N=C/c2ccc(N3CCOCC3)cc2)c1	4.07
CCC(=NCc1cc(OC)cc(OC)c1)c1c(O)n(C)c(=O)n(C)c1=O	2.7
O=C(c1ccco1)N1CCn2c1nc1ccccc12	2.94
COC(=O)c1ccc(-c2nc(CN3CCC(C(=O)N4CCOCC4)CC3)c(C)o2)cc1	5.85
COc1ccc(CNS(=O)(=O)c2ccc3c(c2)N(C(C)=O)CC(C)S3)cc1 (stereo not drawn)	4.98
CC1OC2C(OC1C)N(S(C)(=O)=O)CCN2S(C)(=O)=O (stereo not drawn)	10.4
Cc1ccc(N=C2NC(=O)/C(=C/c3cn(C)c4ccccc34)S2)cc1C	6.34
Cc1cccc(C)c1NC(=O)Cn1nnc(-c2ccc(N3CCOCC3)cc2)n1	-15.4
CCCCC(=O)Nc1nnc(SCC(=O)NC2CC2)s1	13.2

Compound	hERG current change (%, negative = inhibition) at 1uM [%]
Cc1ccc(OCc2n[nH]c(=S)n2Cc2ccccc2)cc1	2.05
Br.CC(=O)Nc1nc(C)c(-c2csc(Nc3cccc(C(C)=O)c3)n2)s1	4.57
O=C(CCn1nc(-c2ccccc2)c2ccccc2c1=O)N1CCN(c2ccccc2)CC1	3.09
O=[N+]([O-])c1ccc(Cl)cc1N1CCOCC1	11.2
CCOC(=O)c1sc(C)c(C(=O)NCCCN2CCOCC2)c1N	7.17
COC(=O)c1ccc(NS(=O)(=O)NC(=O)c2cn(C)c3ccccc23)cc1	2.57
O=C(CSc1nc2ccccc2o1)NCc1ccco1	5.7
Cc1cc(C)c(C)c(OCc2nc(-c3cccnc3)no2)c1	-5.02
Cc1[nH]n2c(=O)c3c(nc2c1-c1ccc(F)cc1)CCCC3	14.2
COc1ccc(NS(=O)(=O)c2c(C)n(C)c(=O)n(C)c2=O)cc1	12
CCN(CC)C(=O)c1ccc(NC(=O)CCCSc2ccccc2)cc1	8.2
CCC(C)NC(=O)c1nn(C)c(=O)c2ccccc12 (stereo not drawn)	8.61
COC(=O)c1ccc(NC(=S)NNC(=O)c2ccccc2)cc1	9.98
Cn1c(=O)c2c(SCCN3CCOCC3)nc(C3CCCC3)nc2n(C)c1=O	7.4
NS(=O)(=O)c1ccc(NC(=S)NCc2cccc(Cl)c2)cc1	8.6
CCCCOc1ccc(C)cc1CN(CCO)CCO.Cl	13.2
C[C@H](NC(=O)[C@H]1N2C(=O)c3ccccc3C2SC1(C)C)C(=O)N1CCC[C@H]1CO (stereo partly drawn)	10.3
O=C(COC(=O)c1cccc(S(=O)(=O)N2CCN(c3ccc(F)cc3)CC2)c1)NCC1CCCO1 (stereo not drawn)	6.46
O=c1[nH]c2ccccc2n2c(C(F)(F)F)nnc12	12.1
COc1cccc(/C=N/NC(=O)c2cc3cc([N+](=O)[O-])ccc3s2)c1O	6.84
Cc1ccccc1-c1nc(CS(=O)CC(=O)NC2CC2)c(C)o1 (stereo not drawn)	17
Cc1nnc(NC(=O)CCCN2C(=O)c3ccccc3C2=O)s1	11.3
Cc1ccc(CNC(=O)c2cccnc2Cl)cc1	12

Compound	hERG current change (%, negative = inhibition) at 1uM [%]
CC(=O)c1cccc(NC(=O)c2ccc3c(c2)CCCC3)c1	10.3
COc1ccc(C(=O)N2CCCC2)cc1S(=O)(=O)N1CCOCC1	1.63
Cn1cnnc1SCCCN1C(=O)c2cccc3cccc(c23)C1=O	-10.3
CCOc1ccc(-c2cc(N3C(=O)Nc4ccccc4N3O)on2)cc1	21.3
CCc1nnc(NS(=O)(=O)c2ccc(NC(=S)NC(=O)c3cccs3)cc2)s1	14.7
CN1CCN(c2ccccc2NC(=S)NC(=O)c2cc3ccccc3o2)CC1	-1.87
CC(=O)c1cccc(NS(=O)(=O)N2CCCCC2)c1	13.9
CCc1ccc(N(C(=O)c2csnn2)C(C(=O)NC(C)(C)C)c2ccccn2)cc1 (stereo not drawn)	-17.4
CNC(=O)c1ccccc1Nc1ccc(SC(F)F)cc1	15.1
Cc1ccc(NC(=S)N(CCCN2CCN(C)CC2)Cc2cccs2)cc1	-4.5
Cc1[nH]c2ccccc2c1C(c1ccncc1)N1CCN(c2ccccc2F)CC1 (stereo not drawn)	3.88
COc1ccc(-c2cc(C(=O)NCCCn3ccnc3)no2)cc1	5.65
N#C/C(=C(/O)CO/N=C/c1ccccc1Cl)c1nc2ccccc2[nH]1	12.2
CC(O)CNc1nc2c(c(=O)n(Cc3ccc(Br)cc3)c(=O)n2C)n1C (stereo not drawn)	9.5
Cc1cc(C)c(C(=O)/C=C/C=C/c2ccccc2)c(=O)[nH]1	16.4
CN(CCOc1ccccc1)CC(=O)Nc1ccc(S(=O)(=O)N2CCCC2)cc1	6.97
CC(C)C(NC(=O)c1ccc(C(C)(C)C)cc1)C(=O)NCc1ccccn1 (stereo not drawn)	12.4
CCCOc1ccc(/C(O)=C2/C(=O)C(=O)N(CCN(C)C)C2c2ccc(OC)c(OC)c2)cc1 (stereo not drawn)	14.9
O=C(NCc1nc2ccccc2[nH]1)C1=C[C@@H](c2ccccc2)C[C@@H](OCCCCO)O1	-9.02
COc1ccc(CN2CCN(C(=O)C3CCC(CNS(=O)(=O)c4ccc(C)cc4)CC3)CC2)c(OC)c1OC (stereo not drawn)	10.5
COc1cccc(C(=O)NC2CCNCC2)c1	11.9
Cn1c(=NC(=O)C2=NNC(=O)CC2)sc2ccccc21	15.7
CN=c1sc2ccccc2n1CC(O)COCc1ccco1 (stereo not drawn)	-28.5

Compound	hERG current change (%, negative = inhibition) at 1uM [%]
Cc1ccc(NC(N)=S)cc1C	12.5
CCOc1ccc(S(=O)(=O)NCc2ccc3c(c2)OCO3)cc1C	13.5
CC1(CC(=O)NNC(=O)Nc2ccccc2)OCCCO1	-16.9
CCc1ccccc1N1CC(C(=O)Nc2nccs2)CC1=O (stereo not drawn)	8.14
CCC(CC)C(=O)NCCc1cc2c(OC)ccc(OC)c2[nH]c1=O	-14.2
COc1cccc(NC(=O)Cn2nnc(C(=O)NCc3cccs3)c2N)c1	4.61
O=C(NCC1OCCc2ccccc21)c1ccc(NC(=O)c2ccc(Cl)cc2)cc1 (stereo not drawn)	-5.81
O=C(COC(=O)C1CC2C=CC1C2)Nc1ccc2c(c1)OC(F)(F)O2 (stereo not drawn)	0.0753
CCOc1cc(NC(=S)Nc2cccc(OC)c2)c(OCC)cc1NC(=O)C1CC1	10.4
CNC(=O)c1c(NC(=O)c2cccc(C)c2)sc2c1CCC2	14.8
CN(C)/C=C(\C=O)c1c(Cl)cccc1Cl	19.7
Cn1c(NNC(=O)C2CCCCC2)cc(=O)n(C)c1=O	10.8
CCn1c(SCC(=O)Nc2cccc(C)n2)nc2c1c(=O)n(C)c(=O)n2C	4.52
COc1ccc(C2C(C#N)=C(N)OC3=C2C(=O)CCC3)cc1Cn1nc(C)c([N+](=O)[O-])c1C (stereo not drawn)	-1.87
COCCN(C(=O)CCC(=O)Nc1ccccn1)C(C(=O)NC(C)C)c1ccc(Cl)cc1 (stereo not drawn)	9.21
COC(=O)c1ccccc1NC=C1C(=O)OC2(CCCCC2)OC1=O	9.35
S=C(c1cn(Cc2ccccc2)c2ccccc12)N1CCOCC1	8.22
Cc1ccc(C2=NNC3(CCOC(C)(C)C3)S2)cc1 (stereo not drawn)	0.551
CCOC(=O)C1CCCN(C(=O)c2ccccc2SCCOC)C1 (stereo not drawn)	6.87
Cc1ccc(SCC(=O)OC(C)C(=O)Nc2ccc(S(N)(=O)=O)cc2)cc1C (stereo not drawn)	20.1
CCCNC(=O)COC(=O)c1cc(C)nc2ccccc12	12.6
